Laboratory results published in the supplement of paper PMC10126150.
Sequences with one replicate were seen in a single cluster, so their values are uncertain.

System: ATP
Assay: switch fluorescence ratio, 500 uM ATP over buffer (Cy3 cluster intensity, sum of 5 cycles each) (fold (ratio)); higher = stronger signal-on switching upon ATP binding; sequences stand for … in TCGTCGGCAGCGTCAGATGTGTATAAGAGACAGTTTTTTTTTTTTTTTTTTTTTTTTT…TC
Settings: aptamer strand: ATP DNA aptamer (quencher-CACCTGGGGGAGTATTGCGGAGGAAGG + anchor), 100 nM annealed; ATP concentration: 500 uM; one replicate
Procedure, shortened: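 Imaging in selection buffer was followed by imaging after 15 min with 500 uM ATP at 22 °C, for Cy3-labelled switching-strand clusters annealed to 100 nM quencher-labelled ATP aptamer on a modified Illumina MiSeq flow-cell. Five of these buffer/ATP cycles ran, separated by NaOH stripping and re-annealing. The fluorescence ratio per cluster is summed target-cycle over summed buffer-cycle Cy3 intensity, averaged per switch-domain sequence; clusters outside 100-1000 RFU were removed.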
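Also: ATP exposure 15 min at 22 °C before imaging.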

Sequence	switch fluorescence ratio
CTCCTTCCAC	2.27
CTCGACAGCT	1
CTCGACGTT	0.981
CTCGACTCTG	0.996
CTCGATTAGC	1.01
CTCGATTTTT	0.982
CTCGCAGGCA	1.19
CTCGCAGGTT	1.19
CTCGCCGCCA	1.03
CTCGCCTGG	1.06
CTCGGAATAG	3.78
CTCGGCACAA	3.07
CTCGGCTGG	1.02
CTCGGGGGG	1.04
CTCGTAACCG	1.02
CTCGTACGTC	0.99
CTCGTACTCT	1.04
CTCGTCACGG	1.04
CTCGTCTAGC	1.06
CTCGTGATGG	1.02
CTCGTTCCCT	1
CTCGTTCCTA	0.989
CTCGTTTTAC	1.07
CTCTAATCCA	0.989
CTCTAATGCA	0.971
CTCTACGCGG	1.08

Sequence	switch fluorescence ratio
CTCTAGGGG	3.28
CTCTAGGTCA	1.01
CTCTCACCGC	1.48
CTCTCGGTAT	1.08
CTCTCTAATG	0.985
CTCTCTATAT	1.05
CTCTGCAGGG	2.3
CTCTGCGGAG	1.2
CTCTGGGCAA	4.52
CTCTGGGCGT	0.974
CTCTGTGAGA	1.03
CTCTGTTCTG	1
CTCTTACCGC	1.01
CTCTTATACT	1.04
CTCTTATTTT	1.01
CTCTTCCTAC	2.08
CTCTTCGGTA	1.04
CTCTTCGGTG	1.01
CTCTTGTTTG	1.03
CTCTTTGTC	1.01
CTCTTTTGCA	1.09
CTGAACCCTT	1.03
CTGAACTGGT	0.991
CTGAAGAACA	1.04
CTGAAGCTGA	1.46
CTGAATACCA	1.01

Sequence	switch fluorescence ratio
CTGAATCAGA	1.03
CTGAATCTG	1.03
CTGACCGCCG	1.08
CTGACTCTTT	1.1
CTGACTGTCC	1.05
CTGAGAATCG	0.976
CTGAGCAATG	4.09
CTGAGCAGTC	1.45
CTGAGCATAC	2.65
CTGAGGACCC	0.939
CTGAGGCAG	1.61
CTGAGGGATT	0.986
CTGAGTAAGT	1
CTGAGTACA	1.02
CTGATAAAAT	1.02
CTGATACGG	0.955
CTGATCGCGT	1.16
CTGATGCGAC	2.85
CTGATTAGTC	1
CTGATTGATA	0.999
CTGATTTCGA	0.965
CTGCAAGAAA	1.01
CTGCACATGA	1.43
CTGCATAGAG	1.08
CTGCATATCA	1.14
CTGCATCATT	1.09

Sequence	switch fluorescence ratio
CTGCATCTTA	1.05
CTGCATGGGT	1.03
CTGCATGTTA	1.03
CTGCATTGAA	1.01
CTGCATTGGC	1.3
CTGCCACGAC	1.52
CTGCCCTCCC	1.86
CTGCCTACTT	1.06
CTGCGACTTA	0.97
CTGCGAGTAT	1.03
CTGCGATATG	1.51
CTGCGCATA	6.2
CTGCTAATTA	0.974
CTGCTCGCTA	2.49
CTGCTGCATC	1.44
CTGCTTACCC	1.07
CTGCTTTATT	1.02
CTGGAAAATT	0.932
CTGGAAATTC	1
CTGGAACATA	1.03
CTGGAAGCGA	2.52
CTGGAAGTA	1.01
CTGGACGGTT	0.981
CTGGACTAAT	0.968
CTGGAGATCC	1.07
CTGGAGGAGT	1.09

Sequence	switch fluorescence ratio
CTGGAGTTAT	1.49
CTGGATACTG	1.08
CTGGATATGG	0.984
CTGGATCAAC	1.09
CTGGATCCAA	0.991
CTGGATGCTA	1.18
CTGGCAGCCT	0.973
CTGGCATGTG	1.02
CTGGCCATTT	1.03
CTGGCCGAGA	0.982
CTGGCCGAGC	1.03
CTGGCGGGGC	1
CTGGCTGGAC	0.988
CTGGCTTGTA	1.01
CTGGGAGGA	0.977
CTGGGATTGT	0.992
CTGGGATTTA	0.972
CTGGGGAAGT	0.962
CTGGGGCCGG	1.06
CTGGGTCAGA	1
CTGGGTGGTG	0.987
CTGGGTTGAG	0.969
CTGGTACTC	1.12
CTGGTAGTAG	1.01
CTGGTAGTGT	1.04
CTGGTCCGAA	0.992

Sequence	switch fluorescence ratio
CTGGTCCGAT	0.975
CTGGTCGCGC	1.05
CTGGTGTACG	0.994
CTGGTTGGG	1.01
CTGGTTTACC	0.972
CTGTAACTCA	1.03
CTGTACCAGG	1.78
CTGTACCGGA	0.947
CTGTACTGCA	1.16
CTGTAGGTCA	1.03
CTGTATAGTA	1.01
CTGTATTTAA	0.978
CTGTCAGCCA	1.09
CTGTCATCCA	0.994
CTGTCCGAGG	1
CTGTGAGTAC	0.991
CTGTGATTAC	1.52
CTGTGCAAGG	1.6
CTGTGCAGGC	1.45
CTGTGCAGTA	1.2
CTGTGCATAT	1.62
CTGTGCCGG	1.01
CTGTGCCGGG	0.961
CTGTGGGATG	1
CTGTGGTGT	1.02
CTGTGTACGA	1.02

Sequence	switch fluorescence ratio
CTGTGTCCGT	0.978
CTGTGTTCCG	0.917
CTGTTAACAC	1.03
CTGTTAATGG	1.02
CTGTTAGAAA	0.989
CTGTTAGGA	1.02
CTGTTAGTAG	0.995
CTGTTCTCGA	1.01
CTGTTTTGTT	0.918
CTTAAAAGTT	0.998
CTTAAACTCT	1.03
CTTAACCGTT	0.993
CTTAAGGCCA	0.999
CTTAATAG	1.05
CTTAATAGCG	0.949
CTTAATGTTG	0.976
CTTAATTGC	0.977
CTTAATTGTC	1.01
CTTACGGGGG	1.02
CTTACGGTAC	1.76
CTTACTACGG	1.32
CTTACTAGAT	0.99
CTTACTGAGG	1.03
CTTAGAGCAC	1.02
CTTAGAGGCA	0.961
CTTAGAGTAC	0.992

Sequence	switch fluorescence ratio
CTTAGCAGGA	1.01
CTTAGCTAAA	1.02
CTTATGACAC	1.05
CTTATGTGC	0.907
CTTATTAAG	0.98
CTTATTCTTA	1.02
CTTATTGAAA	1.14
CTTCAAGTTC	1.04
CTTCACGGTA	1.19
CTTCAGGGGG	1.02
CTTCAGTGG	0.982
CTTCCAAGCT	2.65
CTTCCATTAT	1.07
CTTCCCAAGG	4.15
CTTCCGACCT	4.08
CTTCCGTTGT	1.44
CTTCCTTCTG	1.3
CTTCGATTGA	1.02
CTTCGCCAAA	1.86
